# In all, about 310,000 compounds went through this assay and about 2,200 (0.71%) showed an effect of 50% or more. Effects have a minus sign here. Some of the results follow.
# Biological target: human ether-à-go-go-related gene (hERG) potassium channel (human, UniProt Q12809)
# Experiment: primary screen, population patch clamp on CHO cells stably expressing hERG
# Chain of human ether-à-go-go-related gene (hERG) potassium channel (Q12809 whole entry, looked up): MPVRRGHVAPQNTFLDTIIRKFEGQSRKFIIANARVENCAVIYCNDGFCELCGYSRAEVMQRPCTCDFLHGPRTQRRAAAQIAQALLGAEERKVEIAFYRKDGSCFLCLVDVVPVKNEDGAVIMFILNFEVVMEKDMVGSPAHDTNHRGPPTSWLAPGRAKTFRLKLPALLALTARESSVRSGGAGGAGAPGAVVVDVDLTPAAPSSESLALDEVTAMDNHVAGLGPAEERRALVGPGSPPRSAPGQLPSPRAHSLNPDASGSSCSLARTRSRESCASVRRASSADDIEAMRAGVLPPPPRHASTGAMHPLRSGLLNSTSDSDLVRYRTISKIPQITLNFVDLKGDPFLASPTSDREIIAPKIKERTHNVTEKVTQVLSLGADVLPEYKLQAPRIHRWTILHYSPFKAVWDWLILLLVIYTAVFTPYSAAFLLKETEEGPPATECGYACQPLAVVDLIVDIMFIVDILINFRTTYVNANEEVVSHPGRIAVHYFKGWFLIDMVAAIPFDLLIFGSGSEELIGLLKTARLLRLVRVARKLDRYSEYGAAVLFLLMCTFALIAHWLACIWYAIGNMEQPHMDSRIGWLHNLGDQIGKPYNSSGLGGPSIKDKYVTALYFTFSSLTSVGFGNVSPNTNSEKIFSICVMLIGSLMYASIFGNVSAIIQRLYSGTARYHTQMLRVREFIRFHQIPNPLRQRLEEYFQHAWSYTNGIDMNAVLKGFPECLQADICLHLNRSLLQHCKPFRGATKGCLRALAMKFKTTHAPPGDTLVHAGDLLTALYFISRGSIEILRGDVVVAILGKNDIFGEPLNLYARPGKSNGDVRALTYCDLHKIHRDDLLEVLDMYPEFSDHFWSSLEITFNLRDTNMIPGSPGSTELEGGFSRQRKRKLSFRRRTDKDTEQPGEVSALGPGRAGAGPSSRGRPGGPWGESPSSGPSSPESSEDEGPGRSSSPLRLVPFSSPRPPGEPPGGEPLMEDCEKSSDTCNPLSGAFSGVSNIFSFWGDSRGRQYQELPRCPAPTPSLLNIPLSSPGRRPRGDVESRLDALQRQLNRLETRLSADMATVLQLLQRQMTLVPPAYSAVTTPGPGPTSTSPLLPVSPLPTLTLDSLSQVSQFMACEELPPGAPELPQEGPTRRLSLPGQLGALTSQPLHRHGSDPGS
row,SMILES,"hERG current change (%, negative = inhibition) at 1uM [%]"
1,COc1ccc(C)cc1NC(=O)CSc1nnc(-c2ccco2)n1N,10.2
2,O=C(O)C(=O)Nc1nc(-c2ccc3c(c2)OCCO3)cs1,16.3
3,CCOc1ccc(CC(=O)N2CCN=C2SCc2ccc([N+](=O)[O-])cc2)cc1,-1.71
4,CC(C)(C)c1ccc(C(=O)NCCCn2ccnc2)cc1.Cl,-0.0221
5,CC(C)(C)SCCSC1=CC(=O)CC(c2ccccc2)C1 (stereo not drawn),4.93
6,Nc1no[n+]([O-])c1-c1ccccc1,19.3
7,CN(C(=O)COC(=O)c1cc(S(=O)(=O)N2CCCCC2)ccc1N1CCOCC1)C1CCS(=O)(=O)C1 (stereo not drawn),12.7
8,CN(C)c1ccc(NC(=O)c2cccc(N3C(=O)CCC3=O)c2)cc1,4.99
9,CC(C)CSc1nc2c(=O)[nH][nH]c(=O)c2n1Cc1ccccc1,5.37
10,COC(=O)n1c(=O)oc2cc(S(=O)(=O)N3CCOCC3)ccc21,-13.1
11,O=S(=O)(c1ccc(N2CCOCC2)c(Cl)c1)N1CCOCC1,15.9
12,CC1=NN(c2ccccc2)C(=O)C1N=Nc1ccc(N)cc1 (stereo not drawn),10.3
13,O=C(Nc1ccccc1F)C1CCCN1S(=O)(=O)c1ccc(Cl)cc1 (stereo not drawn),7.58
14,O=C(c1c[nH]cc1-c1ccccc1)c1cccc2ccccc12,-2.22
15,Cc1ccc(CN2C(=O)/C(=C\c3ccc(C(=O)NCc4cccnc4)cc3)Oc3ccccc32)cc1,2.38
16,O=C(c1ccc2c(=O)n3c(nc2c1)CCC3)N1CCN(S(=O)(=O)c2cccc(F)c2)CC1,6.52
17,Cc1cccc(C)c1NC(=O)C1(N2CCN(C(=O)c3ccco3)CC2)CCCCC1,3.3
18,CCCC(C(=O)NC1=NCCS1)c1ccccc1 (stereo not drawn),14.1
19,S=C(NCc1cccnc1)Nc1ccc(Cl)c(Cl)c1,-3.22

row,SMILES,"hERG current change (%, negative = inhibition) at 1uM [%]"
1,COc1ccc(NS(=O)(=O)c2cc3c4c(c2)CCN4C(=O)CC3)cc1OC,11.3
2,CCSc1cc(C)nc2ncnn12,13.4
3,CCN(Cc1ccccc1)C(=O)COC(=O)c1cc(S(=O)(=O)Nc2c(C)n(C)n(-c3ccccc3)c2=O)ccc1C,-44
4,Cc1nnc(NC(=O)CCS(=O)(=O)c2ccccc2)s1,17.6
5,CCOC(=O)C(C)Sc1nc(-c2ccco2)cc(C(F)(F)F)c1C#N (stereo not drawn),0.973
6,Cc1cc(Cl)ccc1NC(=O)c1ccc2c(c1)CCN2S(C)(=O)=O,9.68
7,COc1ccc(CNC(=O)Cn2cnc3c(=O)n(C)c(=O)n(C)c32)cc1,10.2
8,Cc1ccc(C(=O)Nc2ccccc2C(=O)O)cc1S(=O)(=O)NCc1ccccc1,12.4
9,O=S1(=O)CCOC[C@H](Cc2ccccc2)N1Cc1cccc(C(F)(F)F)c1,18.2
10,CCOC(=O)CC(c1ccc([N+](=O)[O-])cc1)n1c(C)ccc1C (stereo not drawn),2.21
11,O=C1Cc2ccccc2C(=O)N1OCc1ccc(Cl)cc1Cl,15.5
12,CC1CCCN(c2ncnc3c2cnn3-c2ccc(Cl)cc2)C1 (stereo not drawn),11.8
13,COc1ccc2c(CC(=O)OCC(=O)Nc3ccccc3[N+](=O)[O-])coc2c1,13.9
14,COc1cc(S(=O)(=O)n2cnc(C)c2)ccc1Cl,6.58
15,Cc1ccc(C(=O)Nc2nc3ccc(Cl)cc3s2)o1,9.87
16,NC(=O)c1ccc(Oc2ncc(C(F)(F)F)cc2Cl)cc1,7.16
17,CCOC(=O)c1c(C)[nH]c(C(=O)OCC(=O)NC2(C#N)CCCCC2)c1C,2.05
18,CCOC(=O)c1ccc(NC(=O)Cn2cnc3cc(C)c(C)cc32)cc1,11.1
19,CCCS(=O)(=O)c1nc(S(=O)(=O)c2ccc(C)cc2)c(N2CCC(C(N)=O)CC2)s1,14.8

row,SMILES,"hERG current change (%, negative = inhibition) at 1uM [%]"
1,COc1cccc(CN(CC(=O)NC2CCCC2)C(=O)CCC(=O)Nc2cc(C)on2)c1,-2.51
2,O=C(CC1SC(=Nc2ccc3c(c2)OCCO3)NC1=O)Nc1ccc(F)cc1F (stereo not drawn),13
3,C/C(=N\NC(=O)Cn1cnc2ccccc21)c1cccs1,17.2
4,CC1=C/C(=C(/c2cc(C)c(O)c(Br)c2)c2ccccc2S(=O)(=O)[O-])C=C(Br)C1=O.[NH4+],11.3
5,CC(C)(C)C(=O)NC(=S)NCc1ccccc1,11.9
6,CC(C)=CC1C(C(=O)NCCOc2ccccc2)C1(C)C (stereo not drawn),13.1
7,O=C1NN(c2ccc(F)cc2)C(=O)/C1=C/c1cccs1,6.11
8,CCC(NC(=O)CCc1c(C)c2cc3c4c(oc3cc2oc1=O)CCCC4)C(=O)O (stereo not drawn),13.6
9,O=C(CNS(=O)(=O)c1ccc2c(c1)OCCCO2)N1CCN(c2ccc(F)cc2)CC1,-4.8
10,COc1ccc2c(C)cc(SCc3c(C)noc3C)nc2c1,-1.12
11,CCN(CC)C(=O)c1cc2c(=O)oc3ccccc3c2s1,-2
12,CC(NC(=O)c1c(Cl)cnn1C)C1CCCO1 (stereo not drawn),9.9
13,COc1ccc(C2CC(=O)Nc3n[nH]c(-c4ccccc4)c32)cc1OC (stereo not drawn),4.97
14,CC1(c2ccc(Cl)cc2)NC(=O)N(CC(=O)N2CCCC2)C1=O (stereo not drawn),6.87
15,COc1cccc(C(=O)Oc2ccc3ccc(O)cc3c2)c1,13.3
16,COCCn1c(SCC(=O)N2CCOCC2)nc2ccccc2c1=O,5.32
17,O=C(Nc1cccc(Cl)c1)N(Cc1nc2ccccc2c(=O)[nH]1)C1CCCC1,10.5
18,COCCC(=O)N1CCCC(CNS(=O)(=O)c2ccc(OC)cc2)C1 (stereo not drawn),8.3
19,O=C(c1ccc(F)cc1)c1ccc(-c2ccc(F)cc2)nc1,16.5

# Source: paper PMC4336329 (PLoS ONE, 2015)
